Assay results reported in PubChem BioAssay AID651820 (National Center for Advancing Translational Sciences (NCATS), 2012).
Out of some 340,000 compounds screened, about 12,000 (3.5%) were called active. This list was built around the results that the source calls inconclusive (neither active nor inactive); the mix of calls is not that of the screen. Calls come from the whole dose curve; as a rule, active = well fitted inhibition curve with a large enough effect; inconclusive = small, poorly fitted or top-dose-only effect, or another doubt; inactive = no such curve, though single readings can be large or run the other way. Potencies of inconclusive entries are left out as doubtful fits.

Test: qHTS Assay for Inhibitors of Hepatitis C Virus (HCV)
Details: Huh7.5.1 HCVcc-Cre (HCVcc is cell-culture hepatitis C virus) infection, luciferase reporter, 44 h; activity change, negative = inhibition: at 41.8 µM (top of the series) unless noted
How it was run: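 Seed cells (1,000/well) for 4 h; treat with compound and infect with HCVcc-Cre, moi about 0.5. Incubate 44 h, then detect luciferase activity.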
% is set by controls: 0 for no effect and ±100 for the full control effect; potency is the fitted concentration of half-maximal effect; tags give direction and shape of the fitted curve.

Row | SMILES | Potency | activity change, negative = inhibition
1 | COc1cccc(/C=C2/CN(C)CC3=C2OC(N)=C(C#N)C3c2cccc(OC)c2)c1 (stereo not given) | inconclusive [inhibitor, single point] | –
2 | c1csc(-c2nn3c(C4COc5ccccc5O4)nnc3s2)c1 (stereo not given) | inconclusive [inhibitor, single point] | –
3 | O=C(NNS(=O)(=O)c1ccc2ccccc2c1)C1CCN(Cc2ccccc2)CC1 | – | inactive: 14.6%
4 | O=C(c1cccc(COc2ccc(Cl)cc2Cl)c1)N1CCN(c2ccccn2)CC1 | inconclusive [inhibitor, single point] | –
5 | O=C(OCCN(C1=NS(=O)(=O)c2ccccc21)c1ccccc1Cl)c1ccc(Cl)cc1 | inconclusive [inhibitor, single point] | –
6 | COc1ccc(CN2CCCCC2C)c(C)c1C (stereo not given) | inconclusive [inhibitor, single point] | –
7 | CC1(C)NC(=O)N(CCCOc2ccc(Br)cc2Cl)C1=O | inconclusive [inhibitor, single point] | –
8 | CC(NCc1cccc(OCc2ccccc2)c1)C(O)c1ccccc1 (stereo not given) | inconclusive [inhibitor, single point] | –
9 | COC(=O)[C@]1(Cc2ccccc2)N[C@H](CN(C)S(=O)(=O)c2ccc(OC(F)(F)F)cc2)[C@@H]2C(=O)N(Cc3ccccc3)C(=O)[C@@H]21 | active: 7.08 µM | –
10 | Cc1cc(SCC(=O)OCC(=O)N(C)c2ccccc2)nc2ccccc12 | – | inactive: 0.916%
11 | O=C(O)c1ccc(/C=N/NC(=O)c2ccc(CN3c4cccc5cccc(c45)S3(=O)=O)cc2)cc1 | – | inactive: 6.45%
12 | CC(C)(C)n1cnnc1Sc1ncccc1[N+](=O)[O-] | – | inactive: 9.03%
13 | COC(=O)c1sccc1NC(=O)CSc1cc(Cl)ccc1Cl | inconclusive [inhibitor, single point] | –
14 | CNC(=S)Nc1ccc(N2CCN(c3ccc(C(F)(F)F)cn3)CC2)nc1 | active: 2.51 µM | –
15 | O=c1[nH]c(/C=C2\C=Nc3ccccc32)c(O)n1Cc1ccccc1F | active: 4.47 µM | –
16 | CCN(CC(=O)NCc1ccc(Cl)cc1)C(=O)CSc1ccc(F)cc1 | inconclusive [inhibitor, single point] | –
17 | CCc1cc(C(=O)Nc2ccc(S(=O)(=O)NC3=NCCCCC3)cc2)sc1C | inconclusive [inhibitor, single point] | –
18 | CCCCSc1nnc(CCNC(=O)OC(C)(C)C)o1 | – | inactive: 13%
19 | Cc1ccc(Oc2nc3c(C)cccn3c(=O)c2/C=C(\C#N)C(N)=O)cc1 | – | inactive: -19.4%
20 | Cc1nnc(NC(=O)C(C)Sc2nnc(-c3ccco3)n2C)s1 (stereo not given) | – | inactive: 1.61%
21 | Cc1noc(C)c1C(=O)Nc1nc(-c2ccccc2Cl)cs1 | inconclusive [inhibitor, partial curve] | –
22 | Cc1cccc(C(=O)NCCNC(=O)c2cccc(C)c2)c1 | – | inactive: -6.23%
23 | O=C(CCS(=O)(=O)c1ccccc1)Nc1nc(-c2ccccn2)cs1 | inconclusive [inhibitor, partial curve] | –

Row | SMILES | Potency | activity change, negative = inhibition
24 | C/C(=N/Nc1nc(-c2ccc(Cl)cc2)cs1)c1cccs1 | inconclusive [inhibitor, single point] | –
25 | CCOc1cc(NCc2ccccc2)c2ncn(C(C)C)c2c1 | active: 2.51 µM | –
26 | CCOC(=O)c1cccc(-[n+]2c(-c3ccccc3)cc(-c3ccccc3)cc2-c2ccccc2)c1 | inconclusive [inhibitor, single point] | –
27 | COc1cccc(CCC(=O)Nc2cccc(S(=O)(=O)N3CCCC3)c2)c1OC | inconclusive [inhibitor, partial curve] | –
28 | Cc1ccc(C2=NN(C(=O)CN3CCN(C4CCS(=O)(=O)C4)CC3)C(c3ccco3)C2)cc1 (stereo not given) | inconclusive [inhibitor, full curve, poor fit] | –
29 | O=C(/C=C/c1ccccc1)Nc1cccc(C(=O)NC2CC2)c1 | inconclusive [inhibitor, partial curve] | –
30 | CCOc1cc(N2CCOCC2)c(OCC)cc1NC(=O)c1oc2ccccc2c1C | inconclusive [inhibitor, single point] | –
31 | CCN(Cc1cnn(C)c1)C(=O)c1ccc(OC2CCN(S(=O)(=O)N(C)C)CC2)cc1 | – | inactive: 1.3%
32 | O=C(Nc1ccc(F)cc1)Nc1cccnc1 | – | inactive: 9.19%
33 | CC(=O)Nc1ccc(NC(=O)C2CCCN2C(=O)Nc2ccccc2[N+](=O)[O-])cc1 (stereo not given) | – | inactive: 2.19%
34 | COc1ccc(C(=O)Nc2ccccc2C(=O)Nc2cc(C)ccn2)cc1 | inconclusive [inhibitor, single point] | –
35 | O=C(CSc1ccc(Cl)cc1)Nc1cccc(-c2nc3ncccc3o2)c1 | – | inactive: 8.95%
36 | CCOC(=O)CC(=O)CSc1nc(-c2ccccc2)cc(-c2ccc(Cl)cc2)c1C#N | inconclusive [inhibitor, partial curve] | –
37 | O=[N+]([O-])c1cc2c(cc1/C=N/n1c(-c3ccccn3)n[nH]c1=S)OCO2 | – | inactive: 12.1%
38 | CCC(CO)Oc1cc(NCc2cccc(F)c2)c2ncn(C(C)C)c2c1 (stereo not given) | inconclusive [inhibitor, partial curve] | –
39 | COc1ccc(OC)c(-c2csc(NC(=O)CSc3ccccc3)n2)c1 | inconclusive [inhibitor, single point] | –
40 | COc1ccc(-c2nsc(SCC(=O)Nc3cc(C)on3)n2)cc1 | inconclusive [inhibitor, full curve] | –
41 | CCN(CC)S(=O)(=O)c1ccc(Cl)c(C(=O)NCCN2CCOCC2)c1 | – | inactive: -1.51%
42 | Cc1ccc(-n2nc3ccc(NC(=O)c4cccc([N+](=O)[O-])c4C)cc3n2)cc1 | inconclusive [inhibitor, single point] | –
43 | COc1ccc(OC)c(NS(=O)(=O)c2ccc(SC)cc2)c1 | inconclusive [inhibitor, partial curve] | –
44 | CCC(C)NC(=O)c1c(N)n(/N=C/c2cccnc2)c2nc3ccccc3nc12 (stereo not given) | active: 14.1 µM | –
45 | CCOc1ccccc1NC(=O)COC(=O)C12CC3CC(CC(O)(C3)C1)C2 | inconclusive [inhibitor, single point] | –
